# Measured values as given in PubChem BioAssay (Tox21).
# Several values for one entry are separate records, joined by “and”; a condition that tells them apart may be missing. Identical values can stand only once. Inconclusive results, whose numbers are uncertain, are shown with a selection of clear calls. Potencies of inconclusive entries are doubtful fits and often do not repeat. Activity calls are given as the source filed them. Unless noted, calls come from the whole dose curve; as a rule, active = well fitted inhibition curve with a large enough effect in the repeat runs (not every such curve was filed as active); inconclusive = weak or mixed curves; inactive = flat fitted curve, though single readings scatter.
# Tested on: not listed separately
# Experiment: qHTS assay to identify small molecule agonists of the TGF-beta/Smad signaling pathway (AID 1346859; active = well fitted activation curve with a large enough effect in the signal ratio in the repeat runs, not every such curve was filed as active; inconclusive = weak or mixed curves; the % refers to the signal ratio; for activation: % is set by controls: 0 for no effect and ±100 for the full control effect)
# Settings: SBE-bla HEK293T, TGF-beta/Smad beta-lactamase reporter, 5 h; activation: at 76.8 µM (top of the series)
# Procedure, shortened: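 Read-out: fluorescence at 460 and 530 nm (405 nm excitation) after a 2 hr room-temperature incubation with beta-lactamase FRET substrate. SBE-bla HEK 293T cells had been treated with test compounds for 5 hr at 37 C.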
# Potency is the fitted concentration of half-maximal effect; tags give direction and shape of the fitted curve or compound fluorescence and quenching.
row,SMILES,Potency
1,O=C(Oc1cccc2cccnc12)c1ccccc1,"inconclusive: 8.49 µM [falling, partial curve, poor fit]"
2,CN(C[C@@H](CC[N+]12CCC(C3CCCCC3)(CC1)CC2)c1ccc(Cl)c(Cl)c1)C(=O)c1cc(C(F)(F)F)cc(C(F)(F)F)c1,inconclusive: 61.6 µM [single point]
3,CCOC(=O)C1=C(C)NC(C)=C(C(=O)OCC)C1c1ccccc1/C=C/C(=O)OC(C)(C)C,active: 23.9 µM
4,CCCC(=O)c1cc(O)c(O)cc1O,"inconclusive: 24.5 µM [rising, partial curve, poor fit]"
5,CCCCCCCCOC(=O)c1cc(O)c(O)c(O)c1,"inconclusive: 54.9 µM [falling, single point]"
6,CC/C(=C(\c1ccc(O)cc1)c1ccc(OCCN(C)C)cc1)c1ccccc1,"inconclusive: 69.4 µM [falling, single point]"
7,CCCCCCCCCCCCCCCCCC[N+](C)(C)Cc1ccccc1,"inconclusive: 62.3 µM [falling, single point]"
8,CCOC(=O)O[C@H](C)OC(=O)c1ccc2c(c1)cc(C(=O)NC1CCN(C(C)C)CC1)n2Cc1cc(-c2ccc(Cl)s2)on1,inconclusive: 57.6 µM [single point]
9,CS(=O)(=O)CCNCc1ccc(-c2ccc3ncnc(Nc4ccc(OCc5cccc(F)c5)c(Cl)c4)c3c2)o1,"inconclusive: 9.52 µM [fluorescent, partial curve]"
10,CCc1cc(SCc2sc(-c3ccc(C(F)(F)F)cc3)nc2CN2CCN(c3ccc(OC)cc3)CC2)ccc1OCC(=O)O,"inconclusive: 2.75 µM [rising, full curve]"
11,CC(C)(c1cc(Br)c(OCCO)c(Br)c1)c1cc(Br)c(OCCO)c(Br)c1,inactive
12,CCCCCCCC/C=C/CCCCCCCC1=NCCN1CCO,"inconclusive: 49 µM [rising, partial curve]"
13,Cc1oc(-c2ccccc2)nc1CCOc1ccc(C[C@H](Nc2ccccc2C(=O)c2ccccc2)C(=O)O)cc1,"inconclusive: 21.9 µM [rising, partial curve]"
14,COc1ccc(-n2nc(CCC(=O)N(C)O)cc2-c2ccc(Cl)cc2)cc1,inactive
15,CSc1ccc2c(c1)C(N1CCN(C)CC1)Cc1ccccc1S2 (stereo not drawn),inactive
16,O=C1c2c(O)ccc(O)c2C(=O)c2c(NCCNCCO)ccc(NCCNCCO)c21,inconclusive: 19 µM
17,CC(=O)O[C@]1(C(C)=O)CC[C@H]2[C@@H]3C=C(C)C4=CC(=O)CC[C@]4(C)[C@H]3CC[C@@]21C,"inconclusive: 17.4 µM [rising, partial curve] and inconclusive: 9.52 µM [rising, partial curve]"
18,CCCCCCCCCCCCc1ccc(O)cc1,"inconclusive: 43.6 µM [falling, partial curve]"
19,OC1(c2ccc(Cl)c(C(F)(F)F)c2)CCN(CCCC(c2ccc(F)cc2)c2ccc(F)cc2)CC1,"inconclusive: 30.1 µM [falling, single point]"

# Target: Thyrotropin-releasing hormone receptor (Homo sapiens) (UniProt P34981)
# Experiment: qHTS assay to identify small molecule antagonists of the thyrotropin-releasing hormone receptor (TRHR) signaling pathway (AID 1346877)
# Settings: TRHR-HEK293, TRH-induced calcium fluorescence, antagonist mode; series mostly up to 51.3 µM
# Procedure, shortened: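 HEK293/TRHR cells, 18 h, 37 °C; Ca2+ dye 2 h; cpd 5 min RT; TRH 1 nM final; fluorescence read 3 min, 1 s intervals; 15 concs, triplicate.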
# Chain of UniProt P34981 (P34981 whole entry, looked up): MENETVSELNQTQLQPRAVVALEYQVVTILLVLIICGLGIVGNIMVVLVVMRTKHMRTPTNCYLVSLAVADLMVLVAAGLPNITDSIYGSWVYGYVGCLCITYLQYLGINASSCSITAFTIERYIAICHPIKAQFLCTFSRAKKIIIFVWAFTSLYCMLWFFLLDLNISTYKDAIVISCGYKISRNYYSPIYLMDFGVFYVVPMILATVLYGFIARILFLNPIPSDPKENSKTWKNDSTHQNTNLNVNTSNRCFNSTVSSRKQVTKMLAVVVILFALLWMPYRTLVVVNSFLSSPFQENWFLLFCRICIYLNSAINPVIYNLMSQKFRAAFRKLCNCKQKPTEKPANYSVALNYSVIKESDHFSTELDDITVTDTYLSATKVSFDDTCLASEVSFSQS
row,SMILES,Potency
1,CCCCCCOC(=O)c1ccc(O)cc1,"inconclusive: 33.9 µM [inhibitor, partial curve]"
2,CC/C(=C(\c1ccc(O)cc1)c1ccc(OCCN(C)C)cc1)c1ccccc1,inconclusive: 38 µM [inhibitor]
3,CCCCC(CC)COC(=O)c1ccc(O)cc1 (stereo not drawn),"inconclusive: 33.7 µM [inhibitor, partial curve]"
4,CCN=c1cc2oc3cc(NCC)c(C)cc3c(-c3ccccc3C(=O)OCC)c-2cc1C,active: 8.47 µM and active: 10.7 µM
5,CN(C)CCCN1c2ccccc2CCc2ccc(Cl)cc21,"inconclusive: 38 µM [inhibitor, partial curve, poor fit]"
6,CCCCCCCCCCCCCCCCCC[N+](C)(C)C,active: 30.3 µM
7,Cc1oc(-c2ccccc2)nc1CCOc1ccc(C[C@H](Nc2ccccc2C(=O)c2ccccc2)C(=O)O)cc1,"inconclusive: 30.1 µM [inhibitor, partial curve]"

# Tested on: not listed separately
# Experiment: qHTS assay to identify small molecule antagonists of the TGF-beta/Smad signaling pathway (AID 1346924; active = well fitted inhibition curve with a large enough effect in the signal ratio in the repeat runs, not every such curve was filed as active; inconclusive = weak or mixed curves; the % refers to the signal ratio)
# Settings: SBE-bla HEK293T, TGF-beta/Smad reporter, beta-lactamase ratio; activity, negative = inhibition: at 76.8 µM (top of the series) unless noted
# Procedure, shortened: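 Read-out was FRET-substrate fluorescence (405 nm excitation; 460 and 530 nm emission) after 2 h at room temperature. Before that, cells carrying a Smad-binding-element beta-lactamase reporter in HEK 293T had been stimulated 5 h at 37 C with TGF-beta1 (0.25 ng/mL addition solution) in the presence of test compound.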
SMILES,"activity, negative = inhibition",Potency
Clc1ccc(C(Cn2ccnc2)OCc2c(Cl)cccc2Cl)c(Cl)c1 (stereo not drawn),inconclusive: -22.7% [at 35.3 µM],
O=C(Oc1cccc2cccnc12)c1ccccc1,inconclusive: -11.7% [at 35.3 µM],
CN(C[C@@H](CC[N+]12CCC(C3CCCCC3)(CC1)CC2)c1ccc(Cl)c(Cl)c1)C(=O)c1cc(C(F)(F)F)cc(C(F)(F)F)c1,inconclusive: -14.5%,
CCCCCCOC(=O)c1ccc(O)cc1,inconclusive: -16.5%,
CCCCCCCCCOC(=O)c1ccc(O)cc1,inconclusive: -24.6%,
CCCCCCCCCCCCN(CCO)CCO,inconclusive: -39.6%,
N#Cc1nc(Cl)c(Cl)c(Cl)c1Cl,inconclusive: -7.31%,
CCCCCCCCOC(=O)c1cc(O)c(O)c(O)c1,inconclusive: -27.3%,
CN[C@H]1CC[C@@H](c2ccc(Cl)c(Cl)c2)c2ccc(S(N)(=O)=O)cc21,inconclusive: -14.3%,
Cc1cc(O)c(C(C)C)cc1Cl,inconclusive: -16.6%,
CCCCCCCCCCCCCCCCCC[N+](C)(C)C,,"inconclusive: 34.8 µM [rising, partial curve, poor fit]"
CCOC(=O)O[C@H](C)OC(=O)c1ccc2c(c1)cc(C(=O)NC1CCN(C(C)C)CC1)n2Cc1cc(-c2ccc(Cl)s2)on1,,"inconclusive: 57.6 µM [cytotoxic, single point]"
CS(=O)(=O)CCNCc1ccc(-c2ccc3ncnc(Nc4ccc(OCc5cccc(F)c5)c(Cl)c4)c3c2)o1,,"inconclusive: 8.49 µM [rising, partial curve]"
CCc1cc(SCc2sc(-c3ccc(C(F)(F)F)cc3)nc2CN2CCN(c3ccc(OC)cc3)CC2)ccc1OCC(=O)O,inconclusive: -25.2%,
CCCCCCCC/C=C/CCCCCCCC1=NCCN1CCO,inconclusive: -14.8%,
CN(C)CCOc1ccc(/C(=C(/CCCl)c2ccccc2)c2ccccc2)cc1,inconclusive: -22.3%,
N/C(=N\N=C\c1ccc(Cl)cc1)N/N=C/c1ccc(Cl)cc1,inconclusive: -29.1% [at 35.3 µM],
Cc1oc(-c2ccccc2)nc1CCOc1ccc(C[C@H](Nc2ccccc2C(=O)c2ccccc2)C(=O)O)cc1,inconclusive: -6.24%,
COc1ccc(-n2nc(CCC(=O)N(C)O)cc2-c2ccc(Cl)cc2)cc1,inconclusive: 12.5% [at 35.3 µM],
CSc1ccc2c(c1)C(N1CCN(C)CC1)Cc1ccccc1S2 (stereo not drawn),inconclusive: -12.3% [at 35.3 µM],
O=C1c2c(O)ccc(O)c2C(=O)c2c(NCCNCCO)ccc(NCCNCCO)c21,inconclusive: -3.12% [at 35.3 µM],
CC(=O)O[C@]1(C(C)=O)CC[C@H]2[C@@H]3C=C(C)C4=CC(=O)CC[C@]4(C)[C@H]3CC[C@@]21C,,"inconclusive: 21.9 µM [fluorescent, partial curve] and inconclusive: 19 µM [fluorescent, partial curve, poor fit]"
